# Reference: patent US4444786A, “Carbamate derivatives, insecticidal, miticidal or nematocidal compositions containing the same, and process for preparing the same” (priority 1981, dated 1984)
# At least one read-out could not be matched to a standard name with certainty.
# Test system: southern root-knot nematode (Meloidogyne incognita)
# Assay: Test Example 3: formation of nodules on tomato roots in soil contaminated with nematode larvae, one month
# Type: in vivo
# Source text: Granules containing 10% of the compound to be tested were mixed, in a specified amount, with soil contaminated with larvae of southern root-knot nematode (Meloidogyne incognita), and tomato seedlings were immediately transplanted in the soil. One month later, the roots of the plant were checked for the formation of nodules. Two test areas, 2×2 m^2 each, were used for the compound as applied in each specified amount.
# [1] = granules (10%) applied at 10 kg/10 a
# [2] = granules (10%) applied at 25 kg/10 a
# [3] = granules (10%) applied at 50 kg/10 a
SMILES,Degree of Formation of Nodules [1],Degree of Formation of Nodules [2],Degree of Formation of Nodules [3]
CCOC(=O)CN(CC(=O)OCC)SN(C)C(=O)ON=C(C)SC [Example 11],4 (75 to 100%),4 (75 to 100%),2 (25 to 49%)
CCOC(=O)CCN(SN(C)C(=O)ON=C(C)SC)c1ccc(OC)cc1 [Example 19],3 (50 to 74%),3 (50 to 74%),1 (1 to 24%)
CCCCCCN(CCC(=O)OCC)SN(C)C(=O)ON=C(C)SC [Example 16],4 (75 to 100%),3 (50 to 74%),2 (25 to 49%)
CCCN(CCC(=O)OCC)SN(C)C(=O)ON=C(C)SC [Example 4],3 (50 to 74%),2 (25 to 49%),1 (1 to 24%)
CCCCN(CC(=O)OCC)SN(C)C(=O)ON=C(C)SC [Example 3],2 (25 to 49%),2 (25 to 49%),1 (1 to 24%)
CCOC(=O)CN(SN(C)C(=O)ON=C(C)SC)C(=O)OCC [Example 12],3 (50 to 74%),3 (50 to 74%),1 (1 to 24%)
CCOC(=O)CCN(SN(C)C(=O)ON=C(C)SC)c1cccc(C)c1 [Example 10],3 (50 to 74%),2 (25 to 49%),2 (25 to 49%)
CCCCOC(=O)CCN(SN(C)C(=O)ON=C(C)SC)C(C)C [Example 15],3 (50 to 74%),3 (50 to 74%),2 (25 to 49%)
CCOC(=O)CCN(Cc1ccccc1)SN(C)C(=O)ON=C(C)SC [Example 8],4 (75 to 100%),2 (25 to 49%),2 (25 to 49%)
CCOC(=O)CN(SN(C)C(=O)ON=C(C)SC)C(=O)CC [Example 13],4 (75 to 100%),3 (50 to 74%),1 (1 to 24%)
CCCCN(CCC(=O)OC)SN(C)C(=O)ON=C(C)SC [Example 5],2 (25 to 49%),2 (25 to 49%),1 (1 to 24%)
"CCOC(=O)CCN(SN(C)C(=O)ON=C(C)SC)C(C)C [Example 1, S-methyl N-[{N-methyl-N-(N-isopropyl-N-ethoxycarbonylethylaminosulfenyl)carbamoyl}oxy]thioacetamidate]",3 (50 to 74%),3 (50 to 74%),1 (1 to 24%)
CCCCC(CC)COC(=O)CCN(SN(C)C(=O)ON=C(C)SC)C(C)C (stereo not drawn) [Example 17],4 (75 to 100%),4 (75 to 100%),2 (25 to 49%)
"CCOC(=O)CCN(CCC(=O)OCC)SN(C)C(=O)ON=C(C)SC [Example 2, S-methyl N-[{N-methyl-N-(N,N-bis(ethoxycarbonylethyl)aminosulfenyl)carbamoyl}oxy]thioacetamidate]",3 (50 to 74%),3 (50 to 74%),2 (25 to 49%)
CCCCCCCCN(CCC(=O)OCC)SN(C)C(=O)ON=C(C)SC [Example 18],4 (75 to 100%),3 (50 to 74%),2 (25 to 49%)
CCOC(=O)CCN(SN(C)C(=O)ON=C(C)SC)C1CCCCC1 [Example 7],4 (75 to 100%),3 (50 to 74%),1 (1 to 24%)
CCOC(=O)CN(SN(C)C(=O)ON=C(C)SC)S(=O)(=O)c1ccc(C)cc1 [Example 14],4 (75 to 100%),2 (25 to 49%),1 (1 to 24%)
CCOC(=O)CCN(Cc1ccc(Cl)cc1)SN(C)C(=O)ON=C(C)SC [Example 20],3 (50 to 74%),2 (25 to 49%),2 (25 to 49%)
CCOC(=O)CCN(SN(C)C(=O)ON=C(C)SC)c1ccc(Cl)cc1 [Example 9],4 (75 to 100%),2 (25 to 49%),2 (25 to 49%)
CCOC(=O)CCN(CC(C)C)SN(C)C(=O)ON=C(C)SC [Example 6],3 (50 to 74%),3 (50 to 74%),2 (25 to 49%)
